Assay results as given in PubChem BioAssay AID624418 (National Center for Advancing Translational Sciences (NCATS), 2012).
About 530 (0.13%) of roughly 410,000 compounds were called active. The shares of active, inactive and inconclusive entries below differ from those in the screen. Calls come from the whole dose curve; as a rule, active = well fitted inhibition curve with a large enough effect; inconclusive = small, poorly fitted or top-dose-only effect, or another doubt; inactive = no such curve, though single readings can be large or run the other way. A potency beside an inconclusive call is a rough fit, not a confirmed value.

Test: qHTS of GLP-1 Receptor Inverse Agonists: Cytotox Screen
Details: HEK293 cAMP-luciferase reporter cells, luminescence, 24 h; activity change, negative = inhibition: at 38.3 µM (top of the series) unless noted
Procedure, shortened: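 MLSMR compounds, 24 hr on cells at 37 deg C/5% CO2; luminescence after luciferase reagent (12 min RT). Inhibition counted as the undesired cytotoxic outcome.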
% is set by controls: 0 for no effect and ±100 for the full control effect; potency is the fitted concentration of half-maximal effect.

| Structure (SMILES) | activity change, negative = inhibition | Potency |
| --- | --- | --- |
| COc1ccc(NC(=O)NC23CC4CC(CC(C4)C2)C3)cc1OC | inactive: -11.4% | – |
| CNC(=O)c1ccc(NC(=O)Nc2ccccc2)cc1 | – | inconclusive: 0.316 µM [inhibitor, full curve, poor fit] |
| O=C(c1ccc(Nc2nc3ccccc3n3nnnc23)cc1)N1CCN(c2ccc(F)cc2)CC1 | inactive: 6.27% | – |
| Cc1nnc(Sc2cc(NCCO)c([N+](=O)[O-])c3nonc23)s1 | – | inconclusive: 14.1 µM [inhibitor, partial curve, poor fit] |
| O=c1cc(C(F)(F)F)[nH]c2ccc(OC(F)(F)F)cc12 | – | inconclusive: 28.2 µM [inhibitor, single point] |
| C=CCOC(=O)C1=C[C@@H](c2cn(C(C)=O)c3ccccc23)C[C@@H](OCCCCO)O1 | – | inconclusive: 0.501 µM [inhibitor, full curve, poor fit] |
| CN(C)C(=O)CSc1nc(-c2ccccc2)nc2c1CCCC2 | – | inconclusive: 5.62 µM [inhibitor, full curve, poor fit] |
| O=c1cc(N2CCOCC2)[nH]c(=O)n1-c1ccc(Cl)cc1 | – | inconclusive: 28.2 µM [inhibitor, single point] |
| C#CCNC(=O)C1=C[C@@H](C)[C@H](CCCO)[C@@H](OCC)O1 | – | inconclusive: 10 µM [inhibitor, partial curve] |
| CC(C)(C)C1CCc2c(sc(NC(=O)CSc3ncn[nH]3)c2C#N)C1 (stereo not drawn) | inactive: -14.2% | – |
| CCCCCc1ccc(-c2ccc(C(=O)Oc3ccc(C(=O)OC)cc3)cc2)nc1 | inactive: 6.05% | – |
| Cc1cc([N+](=O)[O-])cc2c1NC(=O)C2(O)N1CCCC(C)C1 (stereo not drawn) | – | inconclusive: 28.2 µM [inhibitor, single point] |
| CCOc1ccc(N=C2NC(=O)S/C2=C\c2ccc(Cl)cc2)cc1 | inactive: 64.6% | – |
| O=C(Cn1nc(-c2ccc(Cl)cc2)ccc1=O)NCCCN1CCN(Cc2ccccc2)CC1 | inactive: 5% [at 1.53 µM] | – |
| COc1ccccc1CNC(=O)c1ccc(CSc2nc3ccncc3n2Cc2ccccc2C)cc1 | inactive: 17.9% | – |
| Cc1ccc(O)c(-c2cc(-c3ccccc3C)[nH]n2)c1 | – | inconclusive: 22.4 µM [inhibitor, single point] |
| N=c1n(Cc2ccccc2)c2ccccc2n1CC(O)c1ccco1 (stereo not drawn) | – | inconclusive: 7.08 µM [inhibitor, partial curve, poor fit] |
| COc1ccc(-c2c/c(=N\c3nc(-c4ccccc4)c(C)s3)c3ccccc3o2)cc1O | – | inconclusive: 2.24 µM [inhibitor, full curve, poor fit] |
| COc1ccc(-c2cc(C3CCN(c4ncccc4[N+](=O)[O-])CC3)[nH]n2)cc1 | – | inconclusive: 22.4 µM [inhibitor, single point] |
| CN(C)CCCN(C(=O)c1ccc(C(=O)c2ccccc2)cc1)c1nc2ccc(F)cc2s1 | – | inconclusive: 14.1 µM [inhibitor, single point] |
| CCn1c2ccccc2c2nnc(N3CCN(c4ccc(OC)cc4)CC3)nc21 | inactive: 7.22% | – |
| COc1ccc(C2C(C(=O)N3CCN(c4ccccc4F)CC3)c3ccccc3C(=O)N2C)cc1 (stereo not drawn) | – | inconclusive: 12.6 µM [inhibitor, partial curve, poor fit] |

| Structure (SMILES) | activity change, negative = inhibition | Potency |
| --- | --- | --- |
| COc1ccc(C(CNC(=O)c2cccc(S(=O)(=O)Nc3ccccc3OC)c2)N2CCCCC2)cc1 (stereo not drawn) | – | inconclusive: 28.2 µM [inhibitor, single point] |
| O=C(Nc1cccc(C(=O)N2CCCc3ccccc32)c1)c1ccccc1 | – | inconclusive: 20 µM [inhibitor, single point] |
| CCOc1cc(/C=N/O)ccc1OCc1ccc(C)cc1 | – | inconclusive: 10 µM [inhibitor, single point] |
| Nc1nc2c(nnn2C2CC(O)C(CO)O2)c(=O)[nH]1 (stereo not drawn) | – | inconclusive: 4.47 µM [inhibitor, partial curve] |
| S=c1[nH]nc(-c2ccc3ccccc3n2)n1-c1ccc(Cl)cc1 | – | inconclusive: 2.24 µM [inhibitor, full curve, poor fit] |
| CCOC(=O)N1CCN(C2=C(NS(=O)(=O)c3ccc(C)cc3)C(=O)c3ccccc3C2=O)CC1 | – | inconclusive: 10 µM [inhibitor, partial curve] |
| CCCN=Cc1sc2ccc(OCC)cc2c1O | – | inconclusive: 28.2 µM [inhibitor, single point] |
| O=C1Nc2cc(C(=O)NCCN3CCCCCC3)ccc2S/C1=C\c1ccccc1 | inactive: -15.9% | – |
| CCOC(=O)c1c(NC(=S)N2CCOCC2)sc2c1CCN(C(=O)OCC)C2 | – | inconclusive: 12.6 µM [inhibitor, single point] |
| Nc1[nH][nH]c(=O)c1N=Nc1ccc2c(c1)OCO2 | – | inconclusive: 17.8 µM [inhibitor, single point] |
| O=C(CSc1nc(-c2ccc(Cl)cc2)[nH]c(=O)n1)Nc1cccc(Cl)c1 | inactive: 7.48% | – |
| COc1ccc(-n2ncc(Cl)c(Cl)c2=O)cc1 | – | inconclusive: 22.4 µM [inhibitor, single point] |
| Cc1ccc(C)c(NC2CCCCC2NS(=O)(=O)c2ccccc2)c1 (stereo not drawn) | – | inconclusive: 28.2 µM [inhibitor, single point] |
| CS(=O)(=O)c1cccc(C(=O)Nc2ccc(-c3nc4ccccc4[nH]3)cc2)c1 | – | inconclusive: 10 µM [inhibitor, single point] |
| Cn1c(=O)[nH]c(=O)c2c1nc(Br)n2C/C=N/Nc1ccccc1 | – | inconclusive: 12.6 µM [inhibitor, partial curve, poor fit] |
| CC(C)=CCc1c(O)cc2c(=O)c3ccc(O)cc3oc2c1O | inactive: -5.86% | – |
| CSc1nc(C)cc(OCC(=O)N/N=C/c2ccccc2O)n1 | – | inconclusive: 2 µM [inhibitor, full curve, poor fit] |
| CCn1c(SCC(=O)NC2CCCC2)nnc1-c1ccccn1 | inactive: -11.7% | – |
| COc1cc(N2CN=c3s/c(=C\c4ccccn4)c(=O)n3C2)cc(OC)c1OC | inactive: -8.76% | – |
| CC1CCN(c2ccc([N+](=O)[O-])cc2C(=O)N2CCOCC2)CC1 | – | inconclusive: 14.1 µM [inhibitor, single point] |
| O=C(NC(=S)NCC1CCCO1)c1ccccc1[N+](=O)[O-] (stereo not drawn) | inactive: -2.66% [at 7.66 µM] | – |
